# Laboratory results as given in publication PMC4336329 (PLoS ONE, 2015).
# The whole screen tested about 310,000 compounds, of which about 14,000 (4.5%) showed an effect of 50% or more. The effect is printed as a negative number. Some of the results follow.
# Biological target: human ether-à-go-go-related gene (hERG) potassium channel (human, UniProt Q12809)
# Assay: primary screen, population patch clamp on CHO cells stably expressing hERG
# 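Further: peak tail current of the secondary pulse compared with the same well before compound.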
# human ether-à-go-go-related gene (hERG) potassium channel, sequence (Q12809 whole entry, looked up): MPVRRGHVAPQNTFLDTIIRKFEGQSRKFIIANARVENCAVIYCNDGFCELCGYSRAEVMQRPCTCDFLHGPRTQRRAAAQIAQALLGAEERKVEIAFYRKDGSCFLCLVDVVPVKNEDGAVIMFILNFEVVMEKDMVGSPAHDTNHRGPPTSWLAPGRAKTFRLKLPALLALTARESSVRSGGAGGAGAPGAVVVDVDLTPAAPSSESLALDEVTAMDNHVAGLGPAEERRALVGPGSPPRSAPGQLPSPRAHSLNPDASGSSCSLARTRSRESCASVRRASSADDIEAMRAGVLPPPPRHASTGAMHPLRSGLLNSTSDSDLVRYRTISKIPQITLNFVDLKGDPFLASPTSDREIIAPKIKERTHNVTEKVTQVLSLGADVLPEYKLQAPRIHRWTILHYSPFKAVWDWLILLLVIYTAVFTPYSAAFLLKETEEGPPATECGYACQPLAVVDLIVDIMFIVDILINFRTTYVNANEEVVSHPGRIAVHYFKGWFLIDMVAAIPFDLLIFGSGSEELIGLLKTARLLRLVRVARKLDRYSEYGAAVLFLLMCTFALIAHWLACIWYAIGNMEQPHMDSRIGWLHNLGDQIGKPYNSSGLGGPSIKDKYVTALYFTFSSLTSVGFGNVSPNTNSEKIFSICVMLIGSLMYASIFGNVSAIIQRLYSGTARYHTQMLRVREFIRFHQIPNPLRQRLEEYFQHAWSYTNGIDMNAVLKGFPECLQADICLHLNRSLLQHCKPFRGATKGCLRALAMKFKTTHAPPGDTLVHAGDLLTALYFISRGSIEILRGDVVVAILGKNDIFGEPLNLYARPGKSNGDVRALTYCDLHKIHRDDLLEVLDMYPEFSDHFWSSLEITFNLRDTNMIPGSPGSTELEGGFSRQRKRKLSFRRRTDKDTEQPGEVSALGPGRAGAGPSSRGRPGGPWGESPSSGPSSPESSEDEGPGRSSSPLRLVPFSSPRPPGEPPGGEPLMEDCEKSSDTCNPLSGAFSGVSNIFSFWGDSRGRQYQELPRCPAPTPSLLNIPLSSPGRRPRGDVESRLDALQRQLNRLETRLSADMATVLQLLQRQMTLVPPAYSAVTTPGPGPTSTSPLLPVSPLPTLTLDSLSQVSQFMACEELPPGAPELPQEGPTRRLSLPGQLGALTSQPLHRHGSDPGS
row,SMILES,"hERG current change (%, negative = inhibition) at 10uM"
1,CN1C(=O)C(=Cc2c(OCc3cnc(Cl)s3)ccc3ccccc23)C(=O)N(C)C1=O,9.91%
2,CN(C(=O)Cc1c[nH]c2ccccc12)C(C(=O)Nc1ccc2c(c1)OCO2)c1ccccc1 (stereo not drawn),-3.18%
3,Cc1ccc(NC(=O)CSCC(=O)Nc2nnc(C)s2)cc1,5.54%
4,COc1ccc(C2(C(N)=O)CCCCC2)cc1OC,12.4%
5,CCCCNCc1ccc(OCc2ccc(Cl)nc2)c(OC)c1.Cl,-32.7%
6,Cc1ccc(C(=O)c2cc(C)sc2NC(=O)CN2CCN(C(=O)c3ccco3)CC2)cc1,-11.7%
7,CCN1/C(=C2\C(=O)N(C)C(=S)N2C)C=Cc2cc(C)ccc21,-33.4%
8,Cc1ccccc1NC(=O)c1cccc(NC(=O)c2ccco2)c1,3.64%
9,COc1ccc(-c2sc(C(=O)c3ccc(Cl)cc3Cl)cc2CC(=O)O)cc1,9.99%
10,Cc1ccc2c(c1)C1CN(C)CCC1N2S(=O)(=O)c1ccccc1F (stereo not drawn),-32.4%
11,CC(=O)N1CCN(C(=O)CCc2nc3sc4c(c3c(=O)[nH]2)CCCC4)CC1,5.61%
12,CC(=O)NN1C(=O)c2ccccc2NC1c1cccnc1 (stereo not drawn),28.3%
13,N#CCC(=O)c1sccc1-n1cccc1,16%
14,COCCn1c(C)cc(C(=O)COC(=O)c2ccc(Br)o2)c1C,-36.2%
15,O=C1Nc2ncccc2OC1CCO (stereo not drawn),20.8%
16,COc1ccc(CNC(=S)N2CCN(Cc3ccccc3)CC2)cc1,-22.4%
17,COc1ccc2nc(C)cc(Sc3nc4ccccc4s3)c2c1,15.1%
18,COc1ccc(N2CCC(CNC(=S)Nc3c(C)cccc3C)C2)cc1 (stereo not drawn),-4.72%
19,CC(C)(C)c1ccc(C(=O)NNC(=O)CCc2ccccc2)cc1,7.16%

row,SMILES,"hERG current change (%, negative = inhibition) at 10uM"
1,Cc1nc(SCC(=O)NC(C)(C)C)c2c(-c3cccs3)csc2n1,-33.1%
2,Fc1ccccc1Nc1n[nH]c(=S)s1,18.3%
3,CCOCC(=O)Nc1nc2c(s1)C(=O)CC(C)(C)C2,1.56%
4,COc1ccccc1NC(=O)Cc1csc(NC(=O)c2ccccc2)n1,7.93%
5,CCNc1cc(N2CCCC2)ccc1[N+](=O)[O-],0.922%
6,CC(C)c1nnc(SCC(=O)Nc2ccc3c(c2)OCCO3)n1C,3.37%
7,Cc1[nH]n(-c2ccccc2)c(=O)c1C=NC1CCCCC1,-10.5%
8,O=C(CN1CCN(S(=O)(=O)N2CCCCC2)CC1)Nc1ccc(Cl)c(Cl)c1,-28.2%
9,O=C(N/N=C/c1coc2ccccc2c1=O)c1cc2ccccc2o1,2.41%
10,C/C(=N\NC(=O)CCc1ccccc1)c1ccc(Br)cc1,11%
11,COC(=O)CN1C(=O)N/C(=C/c2ccccc2OC)C1=O,-0.466%
12,CCOC(=O)c1c(CSc2ccccc2)n(C)c2cc(Br)c(OC)c(O)c12,16.2%
13,CCOc1ccc(S(=O)(=O)N2CCc3cc(OC)c(OC)cc3C2)cc1,-29.1%
14,Cc1ccc(NC(=O)c2ccccc2)cc1,3.32%
15,O=C(CN1C(=O)NC2(CCc3ccccc32)C1=O)Nc1ccc(N2CCOCC2)cc1 (stereo not drawn),3.09%
16,Cc1ccc(S(=O)(=O)c2nc(S(C)(=O)=O)sc2N2CCC(C)CC2)cc1,9.53%
17,CC(=O)Nc1ccc(NC(=O)C2CC(=O)N(c3ccc(Cl)cc3)C2)cc1 (stereo not drawn),-0.124%
18,CN(Cc1ccccc1F)c1nc(-c2cccnc2)nc2ccccc12,3.92%
19,COc1cc(NC(=O)c2cnn3c(C(F)F)cc(C4CC4)nc23)c(OC)cc1Cl,-1.25%

row,SMILES,"hERG current change (%, negative = inhibition) at 10uM"
1,CCOc1cccc(-c2c(C(=O)N/N=C(\C)c3ccccn3)nnn2-c2nonc2N)c1,-3.45%
2,COC(=O)c1ccc2c(=O)n(CCCCCC(=O)NCCNC(C)=O)c(=O)[nH]c2c1,10.2%
3,CCOP(=O)(OCC)C1(C(=O)[O-])CCCC1.[NH4+],3.87%
4,COC(=O)CCNC(=O)c1ccc2nc(Cc3ccc(OC)c(OC)c3)oc2c1,16%
5,Cc1ccc(C(C(=O)NCc2ccco2)N(C(=O)CNC(=O)c2cccs2)c2ccc(C)cc2C)cc1 (stereo not drawn),-10.3%
6,Cc1ccc(C(=O)NC2CCN(CC(=O)NCc3cccs3)CC2)cc1,-29.7%
7,CC(=O)Nc1cccc(N/C=C(\C=O)c2nc3ccccc3o2)c1,-20.6%
8,CN1c2ccccc2-c2nc3ccccc3n2C1c1ccco1 (stereo not drawn),-15.3%
9,O=C1N(c2ccccc2C(F)(F)F)O[C@@]1(c1ccccc1)C1CCCC1,14.5%
10,Cc1[nH]nc(SCC(=O)NC(C)c2ccccc2)c1[N+](=O)[O-] (stereo not drawn),0.565%
11,O=C1CC(N2CCSCC2)C(=O)N1c1ccc(Br)cc1 (stereo not drawn),-10.8%
12,Br.O=C(Cn1c(NCCO)nc2ccccc21)c1ccco1,0.663%
13,CCCCn1c(SCC(=O)Nc2nnc(CC)s2)nc2ccccc2c1=O,1.88%
14,CCN(CC)CCN(CC)Cc1ccccc1Br,-19.8%
15,FC(F)(F)c1cnc(-c2cnc(-c3ccncc3)nc2)c(Cl)c1,-20.9%
16,COc1ccc(-c2csc(=Nc3c(C)n(C)n(-c4ccccc4)c3=O)n2C(C)(C)C)cc1,-21.4%
17,NC(=O)c1cc(S(=O)(=O)NCc2ccc(F)cc2)cs1,3.37%
18,COc1ccccc1Nc1nc(-c2sc(NC(=O)CC(C)C)nc2C)cs1,5.43%
19,O=C(CCN1C(=O)C2C3C=CC(C3)C2C1=O)N1CC(=O)N(CCc2ccccc2)C(=O)C1 (stereo not drawn),-29%
